The text below walks through data of PubChem BioAssay AID1508624 (National Center for Advancing Translational Sciences (NCATS), 2021).

Where “and” joins values, the source holds several entries; their conditions need not be identical. Identical values can stand only once. Screen size: about 48,000 compounds; about 120 (0.25%) were called active. Roughly 4% stayed inconclusive and do not appear here. Calls come from the whole dose curve; as a rule, active = well fitted activation curve with a large enough effect; inconclusive = small, poorly fitted or top-dose-only effect, or another doubt; inactive = no such curve, though single readings can be large or run the other way. Some of the results follow.

The nature of the test: Primary qHTS for Identification of Small Molecule Activators of Huntingtin-Antisense Promoter Activity. Note: nearly all actives have a fitted effect of over 55% in size. The conditions noted are these: HEK293 HTT-AS promoter firefly luciferase reporter, 24 h; at 57.5 µM (top of the series) unless noted. The gist of the method:
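Firefly luciferase readout (Dual-Glo, 10 min RT) after 24 h, 37 °C compound exposure (final up to 57.5 uM) of HEK293 reporter cells cultured 24 h beforehand; PTC124 at 50 uM final as control inhibitor; activity scaled vehicle 0%, zero RLU -100%.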
Regarding `Cc1cccc(-n2c(/C=C/c3c(C)[nH]c4ccccc34)nc3ccccc3c2=O)c1`, the activity change, positive = activation was inactive: -14.7% [at 57.5 µM, percent change from vehicle, -100% = no light].
In the case of `CCN(CC)CCOC(=O)C(C)(c1ccccc1)c1ccccc1`, the activity change, positive = activation was inactive: -2.83%.
Next, `CN(C)CCN(C)CCc1ccc(Cl)c(Cl)c1`: inactive: -3.8%; `Nc1nc(N)nc(NC2CC2)n1`: inactive: -21.7%.
Next, `Nc1c(C(=O)Nc2ccc(Cl)cc2)sc2nc3c(cc12)N1CCC3CC1`: inactive: -13%; `Cn1cc(/C=C/c2nc3ccccc3c(=O)n2-c2ccccc2)c2ccccc21`: inactive: 5.79%.
`O=C(Nc1ccc2c(c1)OCO2)c1cccn(Cc2cccc(F)c2)c1=O`: the activity change, positive = activation was inactive: -15.5% [at 57.5 µM, percent change from vehicle, -100% = no light].
Next, `C[C@]12CCC(=O)C=C1CC[C@@H]1[C@H]3CC[C@](C)(O)[C@@]3(C)CC[C@@H]12`: inactive: -33% [at 116 µM]; `C[C@H](N)[C@H](O)c1ccc(O)c(O)c1`: inactive: -5.38%.
With `COc1cc(C(c2c(O)c3ccccc3oc2=O)c2c(C)n(C)n(-c3ccccc3)c2=O)ccc1O` (stereo not drawn), the activity change, positive = activation was inactive: -18.2% [at 57.5 µM, percent change from vehicle, -100% = no light].
For `CC(C)N(CCC(C(N)=O)(c1ccccc1)c1ccccn1)C(C)C` (stereo not drawn), the activity change, positive = activation is inactive: -7.47%.
Consider `CN1CCN(c2oc(-c3ccc(COc4ccccc4)o3)nc2C#N)CC1`, for which the activity change, positive = activation is inactive: -9.65% [at 57.5 µM, percent change from vehicle, -100% = no light].
To `CC(C)=CCOc1c2occc2cc2ccc(=O)oc12` belongs inactive: -9.33%; to `N[C@@H](Cc1ccc(N(CCCl)CCCl)cc1)C(=O)O`, inactive: -24.8% and inactive: -17.9%.
As for `Cc1nnc(NC(=O)c2cccn(Cc3cccc(Cl)c3)c2=O)s1`, the activity change, positive = activation was inactive: 1.36% [at 57.5 µM, percent change from vehicle, -100% = no light].
To `O=c1c2ccccc2nc(/C=C/c2ccccc2)n1-c1ccccc1F` belongs inactive: -20.9% [at 57.5 µM, percent change from vehicle, -100% = no light]; to `CCC(=O)OC1CCC2C3CCC4=CC(=O)CC[C@@]4(C)C3CC[C@]12C` (stereo partly drawn), inactive: -5.43%; to `C=CCN1C[C@H](C)N([C@H](c2ccc(C(=O)N(CC)CC)cc2)c2cccc(OC)c2)C[C@H]1C`, inactive: 3.02%.
To `Clc1ccc(CO/N=C(\Cn2ccnc2)c2ccc(Cl)cc2Cl)c(Cl)c1` belongs inactive: -29.4%; to `C[C@]12CC[C@H]3[C@@H](CCC4=CC(=O)CC[C@@H]43)[C@@H]1CC[C@@H]2OC(=O)CCc1ccccc1`, inactive: -0.0477%.
With `O=C1NCN(c2ccccc2)C12CCN(CC1COc3ccccc3O1)CC2` (stereo not drawn), the activity change, positive = activation is inactive: -19.1%.
As for `CC(C)(N)Cc1ccccc1Cl`, the activity change, positive = activation was inactive: -4.91%.
Regarding `COC(=O)c1ccc(NC(=O)c2cccn(Cc3ccccc3C)c2=O)cc1`, the activity change, positive = activation was inactive: -35.5%.
To `c1ccc2nc(N3CCNCC3)ccc2c1` belongs inactive: 0.396%.
On to `Cc1ccc(OCC(=O)Nc2ccc(Cl)cc2C(=O)c2ccccc2)cc1`, for which the activity change, positive = activation is inactive: -5.21%.
Next, `CC1Sc2c(C(=O)O)c(=O)c3cc(F)c(N4CCNCC4)cc3n21` (stereo not drawn): inactive: 0.11%; `O=c1oc2ccccc2c(O)c1C(CC(O)c1ccc(-c2ccc(Br)cc2)cc1)c1ccccc1` (stereo not drawn): inactive: -17.3%.
Regarding `Cc1c(C(=O)c2cccc3ccccc23)c2cccc3c2n1[C@H](CN1CCOCC1)CO3`, the activity change, positive = activation is inactive: -30.6%.
Next, `O=S1(=O)N(Cc2ccccc2)CCCN1Cc1ccc(F)cc1Cl`: inactive: -27.2% [at 57.5 µM, percent change from vehicle, -100% = no light]; `O=C(Nc1ccc(Br)cc1C(=O)c1ccccc1)c1ccccc1`: inactive: -11.1% [at 57.5 µM, percent change from vehicle, -100% = no light].
To `CC(=CCCC1=CCC(C2=CC(=O)OC2O)OC1O)CCC1=C(C)CCCC1(C)C` (stereo not drawn) belongs inactive: -15.5%; to `CC(CCc1ccccc1)NC(C)C(O)c1ccc(O)cc1` (stereo not drawn), inactive: -16.8%.
To `CCCOC(=O)Cc1ccc(OCC(=O)N(CC)CC)c(OC)c1` belongs inactive: -3.28%.
As to `OCCCBr`, the activity change, positive = activation was inactive: -5.38% [at 116 µM].
For the compound `CC[C@@]1(O)C(=O)OCc2c1cc1n(c2=O)Cc2cc3ccccc3nc2-1`, the activity change, positive = activation was inactive: -34%.
Next, `CCCOC(=O)c1cncn1C(C)c1ccccc1` (stereo not drawn): inactive: -1.31%.
Next, `CN(C)CCc1c[nH]c2ccc(O)cc12`: inactive: -9.68% [at 116 µM].
Consider `CCOC(=O)c1ccc(NC(=O)c2sc3nc4c(cc3c2N)N2CCC4CC2)cc1`, for which the activity change, positive = activation was inactive: -42.8%.
Next, `CCCC[N+]1(C)[C@@H]2CC(OC(=O)[C@H](CO)c3ccccc3)C[C@H]1[C@@H]1O[C@@H]12` (stereo partly drawn): inactive: -0.073%; `CCNC(=O)C[C@@H]1N=C(c2ccc(Cl)cc2)c2cc(OC)ccc2-n2c(C)nnc21`: inactive: -17.9%.
Next, `Cc1cc(C)cc(OCC(=O)Nc2ccc(Cl)cc2C(=O)c2ccccc2)c1`: inactive: -5.83% [at 57.5 µM, percent change from vehicle, -100% = no light]; `Oc1c(Br)cc(Br)cc1Br`: inactive: -0.297%.
As for `COc1cc([C@@H]2c3cc4c(cc3[C@@H](O)C3COC(=O)C32)OCO4)cc(OC)c1O` (stereo partly drawn), the activity change, positive = activation is inactive: -29.8%.
To `NCCc1cc(O)c(O)cc1O` belongs inactive: -0.172%.
As for `NNc1ccccc1`, the activity change, positive = activation is inactive: -7.68% [at 57.5 µM, percent change from vehicle, -100% = no light].
To `COc1ccc(OCC(=O)N2CCN(Cc3cccc(OC)c3OC)CC2)cc1` belongs inactive: -21.8% [at 57.5 µM, percent change from vehicle, -100% = no light]; to `CN1CCN(c2ccc([N+](=O)[O-])c3no[n+]([O-])c23)CC1`, inactive: -20.8%.
Next, `CCCN(CCC)C(=O)Cc1c(-c2ccc(Cl)cc2)nc2ccc(Cl)cn12`: inactive: 2.93%.
